In article PMC8599806:
Residue numbers refer to the chain shown, from its start. These are yes or no findings as the source states them, for the method shown. In cells and extracts the contact can be indirect. Some binding calls cover weakened binding; strength is not graded here. For some assays here: Tags and fused reporters may be left off the sequences shown.

The chains behind the UniProt entries cited, without tags or fusion partners.
UniProt O60934: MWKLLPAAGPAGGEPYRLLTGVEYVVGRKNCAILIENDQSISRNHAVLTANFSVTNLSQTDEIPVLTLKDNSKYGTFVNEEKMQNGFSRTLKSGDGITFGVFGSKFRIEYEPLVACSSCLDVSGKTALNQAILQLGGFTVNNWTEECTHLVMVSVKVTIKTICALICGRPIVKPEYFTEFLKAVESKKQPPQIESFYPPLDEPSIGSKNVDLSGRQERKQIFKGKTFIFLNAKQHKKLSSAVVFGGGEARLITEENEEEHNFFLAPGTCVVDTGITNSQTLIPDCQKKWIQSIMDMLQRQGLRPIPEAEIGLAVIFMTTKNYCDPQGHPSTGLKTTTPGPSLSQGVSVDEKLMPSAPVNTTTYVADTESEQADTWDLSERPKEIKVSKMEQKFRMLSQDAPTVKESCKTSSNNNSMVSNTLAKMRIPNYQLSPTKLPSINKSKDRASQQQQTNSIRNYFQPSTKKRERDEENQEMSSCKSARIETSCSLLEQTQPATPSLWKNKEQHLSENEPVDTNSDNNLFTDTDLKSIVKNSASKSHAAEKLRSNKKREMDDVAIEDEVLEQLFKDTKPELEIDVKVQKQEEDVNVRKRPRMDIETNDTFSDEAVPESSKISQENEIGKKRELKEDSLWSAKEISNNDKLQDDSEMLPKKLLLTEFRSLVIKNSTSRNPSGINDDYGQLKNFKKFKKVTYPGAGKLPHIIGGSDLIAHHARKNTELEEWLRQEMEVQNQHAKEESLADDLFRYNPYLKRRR
UniProt Q06609: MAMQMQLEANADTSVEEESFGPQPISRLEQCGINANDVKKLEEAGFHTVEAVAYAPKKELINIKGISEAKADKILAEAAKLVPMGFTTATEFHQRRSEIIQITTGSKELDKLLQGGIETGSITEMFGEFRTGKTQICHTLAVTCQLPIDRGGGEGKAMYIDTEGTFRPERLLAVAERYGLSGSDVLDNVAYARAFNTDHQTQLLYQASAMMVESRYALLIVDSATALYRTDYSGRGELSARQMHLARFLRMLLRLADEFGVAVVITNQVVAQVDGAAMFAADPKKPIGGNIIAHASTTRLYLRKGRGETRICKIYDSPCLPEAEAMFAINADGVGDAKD
UniProt Q14676: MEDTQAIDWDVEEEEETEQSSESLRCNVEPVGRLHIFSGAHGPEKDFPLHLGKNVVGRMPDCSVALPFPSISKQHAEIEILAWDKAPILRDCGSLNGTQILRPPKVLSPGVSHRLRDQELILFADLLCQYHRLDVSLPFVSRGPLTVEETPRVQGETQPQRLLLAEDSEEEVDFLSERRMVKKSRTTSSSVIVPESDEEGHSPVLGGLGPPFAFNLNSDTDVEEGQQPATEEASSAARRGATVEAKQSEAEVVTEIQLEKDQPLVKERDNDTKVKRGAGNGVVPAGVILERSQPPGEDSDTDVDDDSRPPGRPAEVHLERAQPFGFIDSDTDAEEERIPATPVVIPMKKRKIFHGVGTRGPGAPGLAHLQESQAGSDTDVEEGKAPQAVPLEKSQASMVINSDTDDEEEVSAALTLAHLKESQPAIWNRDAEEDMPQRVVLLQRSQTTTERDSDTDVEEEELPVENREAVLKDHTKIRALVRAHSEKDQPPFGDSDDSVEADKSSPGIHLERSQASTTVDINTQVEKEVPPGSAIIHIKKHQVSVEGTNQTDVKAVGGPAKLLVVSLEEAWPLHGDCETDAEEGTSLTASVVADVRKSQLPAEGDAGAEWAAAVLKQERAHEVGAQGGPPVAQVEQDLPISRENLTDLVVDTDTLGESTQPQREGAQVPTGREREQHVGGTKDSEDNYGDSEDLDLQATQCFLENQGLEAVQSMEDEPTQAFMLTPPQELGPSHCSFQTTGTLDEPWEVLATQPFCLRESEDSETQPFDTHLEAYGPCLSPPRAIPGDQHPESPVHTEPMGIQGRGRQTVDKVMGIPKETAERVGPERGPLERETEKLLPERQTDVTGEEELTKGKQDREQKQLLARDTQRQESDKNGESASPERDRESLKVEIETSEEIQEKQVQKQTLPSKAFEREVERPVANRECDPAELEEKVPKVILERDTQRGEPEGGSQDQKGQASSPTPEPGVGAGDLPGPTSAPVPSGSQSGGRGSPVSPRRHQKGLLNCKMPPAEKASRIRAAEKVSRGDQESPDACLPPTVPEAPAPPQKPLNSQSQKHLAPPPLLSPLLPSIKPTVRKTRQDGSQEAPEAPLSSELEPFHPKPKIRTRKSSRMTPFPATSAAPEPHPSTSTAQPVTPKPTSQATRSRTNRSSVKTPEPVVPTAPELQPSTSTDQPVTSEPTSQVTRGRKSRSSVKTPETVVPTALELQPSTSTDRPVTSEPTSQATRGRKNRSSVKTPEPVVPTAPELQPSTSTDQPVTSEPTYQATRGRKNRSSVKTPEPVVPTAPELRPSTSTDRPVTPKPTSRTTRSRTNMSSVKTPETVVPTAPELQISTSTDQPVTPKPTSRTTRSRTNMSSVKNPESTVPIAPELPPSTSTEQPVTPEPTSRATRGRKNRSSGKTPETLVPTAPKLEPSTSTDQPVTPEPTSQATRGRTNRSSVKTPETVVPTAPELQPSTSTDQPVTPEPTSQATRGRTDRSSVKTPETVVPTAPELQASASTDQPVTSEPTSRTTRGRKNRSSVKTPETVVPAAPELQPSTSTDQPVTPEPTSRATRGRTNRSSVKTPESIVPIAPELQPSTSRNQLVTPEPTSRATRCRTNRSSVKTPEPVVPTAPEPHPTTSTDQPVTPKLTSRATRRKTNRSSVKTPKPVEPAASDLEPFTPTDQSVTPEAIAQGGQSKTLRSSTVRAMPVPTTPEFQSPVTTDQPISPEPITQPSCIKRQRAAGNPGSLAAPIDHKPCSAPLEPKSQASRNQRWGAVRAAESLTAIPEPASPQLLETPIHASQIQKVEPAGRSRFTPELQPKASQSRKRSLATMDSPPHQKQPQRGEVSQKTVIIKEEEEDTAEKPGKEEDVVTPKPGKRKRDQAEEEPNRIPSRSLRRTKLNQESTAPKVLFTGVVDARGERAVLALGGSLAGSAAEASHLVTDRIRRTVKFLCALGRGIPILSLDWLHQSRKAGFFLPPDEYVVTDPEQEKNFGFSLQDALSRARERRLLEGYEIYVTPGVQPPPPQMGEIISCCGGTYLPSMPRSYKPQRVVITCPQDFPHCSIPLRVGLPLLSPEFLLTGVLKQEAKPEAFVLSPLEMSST
UniProt Q92878: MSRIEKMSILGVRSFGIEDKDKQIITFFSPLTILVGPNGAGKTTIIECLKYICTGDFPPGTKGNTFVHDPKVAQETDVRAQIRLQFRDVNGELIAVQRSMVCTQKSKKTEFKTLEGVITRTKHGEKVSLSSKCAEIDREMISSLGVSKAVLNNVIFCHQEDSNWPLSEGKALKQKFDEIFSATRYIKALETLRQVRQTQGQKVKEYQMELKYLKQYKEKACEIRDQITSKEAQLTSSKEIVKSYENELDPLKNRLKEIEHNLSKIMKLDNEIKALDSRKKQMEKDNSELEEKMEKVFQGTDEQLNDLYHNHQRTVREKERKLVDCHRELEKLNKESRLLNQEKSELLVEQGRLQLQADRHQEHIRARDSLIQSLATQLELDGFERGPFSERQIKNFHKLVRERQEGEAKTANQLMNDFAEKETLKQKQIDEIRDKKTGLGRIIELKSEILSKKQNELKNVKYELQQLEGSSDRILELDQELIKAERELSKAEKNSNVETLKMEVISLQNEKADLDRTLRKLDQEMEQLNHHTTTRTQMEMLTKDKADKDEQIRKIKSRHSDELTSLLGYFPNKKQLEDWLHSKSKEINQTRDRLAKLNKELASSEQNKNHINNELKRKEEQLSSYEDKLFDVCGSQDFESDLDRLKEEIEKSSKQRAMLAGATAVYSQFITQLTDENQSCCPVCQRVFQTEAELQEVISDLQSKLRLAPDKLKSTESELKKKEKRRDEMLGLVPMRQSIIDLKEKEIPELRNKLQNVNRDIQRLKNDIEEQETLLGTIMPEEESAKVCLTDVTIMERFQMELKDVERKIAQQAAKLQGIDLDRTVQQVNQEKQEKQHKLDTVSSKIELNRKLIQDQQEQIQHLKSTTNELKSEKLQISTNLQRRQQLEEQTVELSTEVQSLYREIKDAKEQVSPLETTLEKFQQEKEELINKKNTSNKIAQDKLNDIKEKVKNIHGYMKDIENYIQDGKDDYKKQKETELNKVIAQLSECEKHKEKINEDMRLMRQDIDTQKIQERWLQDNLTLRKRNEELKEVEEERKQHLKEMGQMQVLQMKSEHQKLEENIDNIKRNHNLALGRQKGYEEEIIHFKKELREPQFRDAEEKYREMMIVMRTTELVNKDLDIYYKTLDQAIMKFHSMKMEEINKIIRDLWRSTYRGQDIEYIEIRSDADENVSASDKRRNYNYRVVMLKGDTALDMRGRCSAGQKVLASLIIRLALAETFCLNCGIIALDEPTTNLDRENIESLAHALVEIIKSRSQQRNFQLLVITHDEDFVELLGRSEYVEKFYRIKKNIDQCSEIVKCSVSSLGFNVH
UniProt P46063: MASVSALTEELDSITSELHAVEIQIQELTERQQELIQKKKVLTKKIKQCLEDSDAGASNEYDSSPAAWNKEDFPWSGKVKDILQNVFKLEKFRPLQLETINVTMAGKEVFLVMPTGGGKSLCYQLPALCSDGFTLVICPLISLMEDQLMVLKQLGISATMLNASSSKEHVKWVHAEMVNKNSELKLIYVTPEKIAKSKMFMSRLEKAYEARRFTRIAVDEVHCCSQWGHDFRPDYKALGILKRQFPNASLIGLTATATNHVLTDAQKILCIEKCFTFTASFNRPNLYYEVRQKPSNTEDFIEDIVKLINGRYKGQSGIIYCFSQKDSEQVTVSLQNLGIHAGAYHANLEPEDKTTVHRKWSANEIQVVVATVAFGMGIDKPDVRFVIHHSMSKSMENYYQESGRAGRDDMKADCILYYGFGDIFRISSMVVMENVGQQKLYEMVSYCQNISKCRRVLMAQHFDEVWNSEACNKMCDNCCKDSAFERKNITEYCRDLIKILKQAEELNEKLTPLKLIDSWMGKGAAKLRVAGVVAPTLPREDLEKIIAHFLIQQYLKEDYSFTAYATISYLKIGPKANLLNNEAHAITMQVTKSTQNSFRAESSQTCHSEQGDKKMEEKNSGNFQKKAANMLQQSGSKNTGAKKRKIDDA

What was measured:
[1] = target: T1, GFP-Flag-tagged ID3 (inhibitor of DNA-binding 3), wild type (human) (UniProt Q02535); assay: co-IP; IP of Flag-tagged ID3 (wild type, S65A, S65E) with anti-Flag magnetic beads from 1.5-2 mg nuclear lysate, overnight at 4°C; Western blot; untreated and after irradiation with 10 Gy (15 or 60 min)
T1 sequence: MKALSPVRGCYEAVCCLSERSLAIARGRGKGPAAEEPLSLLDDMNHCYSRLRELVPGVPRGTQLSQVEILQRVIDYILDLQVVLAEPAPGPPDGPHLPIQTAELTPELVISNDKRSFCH

[2] = target: T2, phospho-dead ID3 (S65A), Flag-tagged (human) (UniProt Q02535); assay: as above
T2 sequence: T1 sequence with S65A

[3] = target: T3, phospho-mimic ID3 (S65E), Flag-tagged (human) (UniProt Q02535); assay: as above
T3 sequence: T1 sequence with S65E

[4] = target: T4, endogenous ID3 (human (endogenous in human cell lines; line not named)) (UniProt Q02535); assay: co-IP; IP of endogenous ID3 with agarose beads conjugated with mouse anti-ID3, Western blot; before and after irradiation; also after knockdown of MDC1 prior to irradiation (no influence); DMSO or 10 uM ATM inhibitor KU55933 prior to irradiation reduced the co-IP (Figure 1H; legend does not tell which ID3)
T4 sequence: T1 sequence

[5] = target: T5, ID3 (form not told: Supplementary Figures S2D and S5L) (human) (UniProt Q02535); assay: co-IP; additional co-immunoprecipitation of other DNA repair proteins (Supplementary Figure S2D); bait and form of ID3 not told
T5 sequence: T1 sequence

| Substance | binding [1] | binding [2] | binding [3] | binding [4] | binding [5] |
| --- | --- | --- | --- | --- | --- |
| NBS1 (from UniProt O60934 1-754) | binds | no binding | binds | binds | – |
| RAD51 (from UniProt Q06609 1-339) | – | – | – | – | no binding |

Next, values leading:

| binding [1] | binding [2] | binding [3] | binding [4] | binding [5] | Substance |
| --- | --- | --- | --- | --- | --- |
| binds | – | – | – | – | MDC1 (from UniProt Q14676 1-2089) |
| binds | no binding | binds | binds | – | RAD50 (from UniProt Q92878 1-1312) |
| binds | no binding | binds | binds | – | RECQL helicase (from UniProt P46063 1-649) |
